Reference: paper PMC8119438
No constants are given. Whether binding was seen depends on the method and setting. For some assays here: In cells and extracts the contact can be indirect. Some binding calls cover weakened binding; strength is not graded here. Where a sequence is shown, tags or fusion partners need not be part of it. Blank lines part the entries; values can stand above or below the binder they belong to.

Assays:
GST-RILP (mouse) [1] = molecular target: T1, GST-RILP (mouse) (UniProt Q5ND29); assay: pull-down; 5 μg GST-RILP on glutathione agarose beads, 4 h at 4 °C with vehicle (2 or 4% DMSO) or 200 μM peptide 1, peptide 2 or both, then 18 h with RBL cell lysate (500 μg), 0.5 mM GTPγS; blot anti-Rab12; only the target purified
T1 sequence: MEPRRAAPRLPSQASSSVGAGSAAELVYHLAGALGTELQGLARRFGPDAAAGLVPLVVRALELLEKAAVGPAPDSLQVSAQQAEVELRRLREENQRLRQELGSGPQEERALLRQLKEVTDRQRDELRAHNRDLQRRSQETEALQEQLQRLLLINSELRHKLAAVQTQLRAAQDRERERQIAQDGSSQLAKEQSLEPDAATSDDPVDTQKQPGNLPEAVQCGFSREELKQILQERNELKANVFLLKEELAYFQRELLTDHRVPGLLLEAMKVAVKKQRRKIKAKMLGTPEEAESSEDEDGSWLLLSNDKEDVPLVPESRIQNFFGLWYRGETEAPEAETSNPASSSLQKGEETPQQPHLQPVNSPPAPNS

GFP-RILP (mouse) = molecular target: T2, GFP-RILP (mouse) (UniProt Q5ND29); assay: co-IP; RBL cells co-transfected with pEGFP and pEF-T7 constructs; lysate (500 μg, buffer A: 50 mM Hepes pH 7.4, 250 mM NaCl, 1 mM MgCl2, 1% Triton X-100) immunoprecipitated overnight at 4 °C with rabbit polyclonal anti-GFP; blot with anti-T7 (Fig. 1a,b)
T2 sequence: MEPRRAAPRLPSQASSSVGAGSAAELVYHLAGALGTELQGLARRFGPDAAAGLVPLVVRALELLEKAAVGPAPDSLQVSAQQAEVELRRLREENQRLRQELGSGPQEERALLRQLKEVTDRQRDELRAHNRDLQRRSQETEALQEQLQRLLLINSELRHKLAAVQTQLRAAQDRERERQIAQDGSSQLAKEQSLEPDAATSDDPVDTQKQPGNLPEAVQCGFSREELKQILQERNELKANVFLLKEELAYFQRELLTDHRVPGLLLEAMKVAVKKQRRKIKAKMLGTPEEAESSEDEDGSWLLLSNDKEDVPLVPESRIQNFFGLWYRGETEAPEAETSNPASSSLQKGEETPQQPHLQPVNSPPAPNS

GST-RILP (mouse) [2] = molecular target: T1, GST-RILP (mouse); assay: pull-down; GST-RILP, GST-RILP-L1 or GST-RILP-L2 on glutathione agarose beads incubated with RBL cell lysates (GFP fusions; Rab12), 18 h at 4 °C, 0.5 mM GTPγS (Supplementary figure S2); only the target purified
T7-RILP-L1 (mouse) = molecular target: T3, T7-RILP-L1 (mouse) (UniProt Q9JJC6); assay: co-IP; reciprocal: same co-transfected RBL lysates immunoprecipitated overnight at 4 °C with mouse monoclonal anti-T7; blot with anti-GFP (Fig. 1c,d)
T3 sequence: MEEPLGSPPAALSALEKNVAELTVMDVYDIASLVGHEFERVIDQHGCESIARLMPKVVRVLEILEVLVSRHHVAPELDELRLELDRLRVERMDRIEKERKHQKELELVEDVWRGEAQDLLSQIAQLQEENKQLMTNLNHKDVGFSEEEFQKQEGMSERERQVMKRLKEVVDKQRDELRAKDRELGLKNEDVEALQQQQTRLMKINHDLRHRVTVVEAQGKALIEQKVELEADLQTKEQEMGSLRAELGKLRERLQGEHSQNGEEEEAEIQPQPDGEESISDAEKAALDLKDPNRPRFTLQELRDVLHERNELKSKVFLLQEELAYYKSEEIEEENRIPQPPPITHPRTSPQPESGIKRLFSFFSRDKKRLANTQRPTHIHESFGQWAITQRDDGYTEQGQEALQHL

T7-RILP-L2 (mouse) = molecular target: T4, T7-RILP-L2 (mouse) (UniProt Q99LE1); assay: as above
T4 sequence: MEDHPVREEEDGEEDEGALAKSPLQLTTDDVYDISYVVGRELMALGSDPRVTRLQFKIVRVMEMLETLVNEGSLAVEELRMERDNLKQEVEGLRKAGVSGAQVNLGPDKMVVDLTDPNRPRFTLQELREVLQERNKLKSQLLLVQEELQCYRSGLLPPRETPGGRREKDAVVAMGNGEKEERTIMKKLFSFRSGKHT

T7-RILP (mouse) = molecular target: T5, T7-RILP (mouse) (UniProt Q5ND29); assay: as above
T5 sequence: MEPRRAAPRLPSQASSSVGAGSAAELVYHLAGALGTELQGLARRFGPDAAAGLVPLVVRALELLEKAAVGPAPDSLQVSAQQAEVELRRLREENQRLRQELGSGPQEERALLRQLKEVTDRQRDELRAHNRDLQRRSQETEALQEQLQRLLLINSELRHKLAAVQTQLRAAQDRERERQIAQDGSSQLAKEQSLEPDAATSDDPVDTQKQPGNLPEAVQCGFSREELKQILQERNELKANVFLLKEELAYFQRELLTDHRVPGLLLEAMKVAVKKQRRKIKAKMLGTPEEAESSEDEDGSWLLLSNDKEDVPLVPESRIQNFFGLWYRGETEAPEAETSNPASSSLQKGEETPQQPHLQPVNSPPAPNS

[3] = molecular target: T6, RILP-L2 (yeast two-hybrid fusions) (mouse) (UniProt Q99LE1); assay: two-hybrid; yeast with pGAD-C1 and pGBD-C1 constructs of RILP, RILP-L1 or RILP-L2; growth at 30 °C on SC-AHLW selection medium for one week (Supplementary figure S1)
T6 sequence: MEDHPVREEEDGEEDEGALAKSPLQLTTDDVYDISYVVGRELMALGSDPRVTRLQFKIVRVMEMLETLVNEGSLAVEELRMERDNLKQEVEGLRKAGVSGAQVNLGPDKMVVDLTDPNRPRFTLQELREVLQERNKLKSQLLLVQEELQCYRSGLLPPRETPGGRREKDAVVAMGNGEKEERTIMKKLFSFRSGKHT

B2: T7-RILP (protein, UniProt Q5ND29 1-369)
chain: MEPRRAAPRLPSQASSSVGAGSAAELVYHLAGALGTELQGLARRFGPDAAAGLVPLVVRALELLEKAAVGPAPDSLQVSAQQAEVELRRLREENQRLRQELGSGPQEERALLRQLKEVTDRQRDELRAHNRDLQRRSQETEALQEQLQRLLLINSELRHKLAAVQTQLRAAQDRERERQIAQDGSSQLAKEQSLEPDAATSDDPVDTQKQPGNLPEAVQCGFSREELKQILQERNELKANVFLLKEELAYFQRELLTDHRVPGLLLEAMKVAVKKQRRKIKAKMLGTPEEAESSEDEDGSWLLLSNDKEDVPLVPESRIQNFFGLWYRGETEAPEAETSNPASSSLQKGEETPQQPHLQPVNSPPAPNS
binding (GFP-RILP (mouse)): binds

B3: GFP-RILP (protein, UniProt Q5ND29 1-369)
chain: MEPRRAAPRLPSQASSSVGAGSAAELVYHLAGALGTELQGLARRFGPDAAAGLVPLVVRALELLEKAAVGPAPDSLQVSAQQAEVELRRLREENQRLRQELGSGPQEERALLRQLKEVTDRQRDELRAHNRDLQRRSQETEALQEQLQRLLLINSELRHKLAAVQTQLRAAQDRERERQIAQDGSSQLAKEQSLEPDAATSDDPVDTQKQPGNLPEAVQCGFSREELKQILQERNELKANVFLLKEELAYFQRELLTDHRVPGLLLEAMKVAVKKQRRKIKAKMLGTPEEAESSEDEDGSWLLLSNDKEDVPLVPESRIQNFFGLWYRGETEAPEAETSNPASSSLQKGEETPQQPHLQPVNSPPAPNS
binding (GST-RILP (mouse) [2]): binds | binding (T7-RILP-L1 (mouse)): no binding | binding (T7-RILP-L2 (mouse)): no binding | binding (T7-RILP (mouse)): binds

B4: T7-RILP-L1 (protein, UniProt Q9JJC6 1-406)
chain: MEEPLGSPPAALSALEKNVAELTVMDVYDIASLVGHEFERVIDQHGCESIARLMPKVVRVLEILEVLVSRHHVAPELDELRLELDRLRVERMDRIEKERKHQKELELVEDVWRGEAQDLLSQIAQLQEENKQLMTNLNHKDVGFSEEEFQKQEGMSERERQVMKRLKEVVDKQRDELRAKDRELGLKNEDVEALQQQQTRLMKINHDLRHRVTVVEAQGKALIEQKVELEADLQTKEQEMGSLRAELGKLRERLQGEHSQNGEEEEAEIQPQPDGEESISDAEKAALDLKDPNRPRFTLQELRDVLHERNELKSKVFLLQEELAYYKSEEIEEENRIPQPPPITHPRTSPQPESGIKRLFSFFSRDKKRLANTQRPTHIHESFGQWAITQRDDGYTEQGQEALQHL
binding (GFP-RILP (mouse)): no binding

Next, values leading:

binding (GST-RILP (mouse) [1]): binds
B1: peptide 1 (Rab12 amino acids 68 to 82) (peptide)
peptide: EACKSTVGVDFKIKT

binding [3]: no binding
B5: RILP-L1 (yeast two-hybrid fusions) (protein, UniProt Q9JJC6 1-406)
chain: MEEPLGSPPAALSALEKNVAELTVMDVYDIASLVGHEFERVIDQHGCESIARLMPKVVRVLEILEVLVSRHHVAPELDELRLELDRLRVERMDRIEKERKHQKELELVEDVWRGEAQDLLSQIAQLQEENKQLMTNLNHKDVGFSEEEFQKQEGMSERERQVMKRLKEVVDKQRDELRAKDRELGLKNEDVEALQQQQTRLMKINHDLRHRVTVVEAQGKALIEQKVELEADLQTKEQEMGSLRAELGKLRERLQGEHSQNGEEEEAEIQPQPDGEESISDAEKAALDLKDPNRPRFTLQELRDVLHERNELKSKVFLLQEELAYYKSEEIEEENRIPQPPPITHPRTSPQPESGIKRLFSFFSRDKKRLANTQRPTHIHESFGQWAITQRDDGYTEQGQEALQHL
